The values below come from paper PMC4336329 (PLoS ONE, 2015).

The structures appear in SMILES notation. The whole screen tested about 310,000 compounds, of which about 14,000 (4.5%) showed an effect of 50% or more. Effects have a minus sign here. This is one part of the list.
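Further: peak tail current of the secondary pulse compared with the same well before compound.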

The target in the test is human ether-à-go-go-related gene (hERG) potassium channel (human, UniProt Q12809). The test is described as follows: primary screen, population patch clamp on CHO cells stably expressing hERG.
human ether-à-go-go-related gene (hERG) potassium channel, sequence (Q12809 whole entry, looked up): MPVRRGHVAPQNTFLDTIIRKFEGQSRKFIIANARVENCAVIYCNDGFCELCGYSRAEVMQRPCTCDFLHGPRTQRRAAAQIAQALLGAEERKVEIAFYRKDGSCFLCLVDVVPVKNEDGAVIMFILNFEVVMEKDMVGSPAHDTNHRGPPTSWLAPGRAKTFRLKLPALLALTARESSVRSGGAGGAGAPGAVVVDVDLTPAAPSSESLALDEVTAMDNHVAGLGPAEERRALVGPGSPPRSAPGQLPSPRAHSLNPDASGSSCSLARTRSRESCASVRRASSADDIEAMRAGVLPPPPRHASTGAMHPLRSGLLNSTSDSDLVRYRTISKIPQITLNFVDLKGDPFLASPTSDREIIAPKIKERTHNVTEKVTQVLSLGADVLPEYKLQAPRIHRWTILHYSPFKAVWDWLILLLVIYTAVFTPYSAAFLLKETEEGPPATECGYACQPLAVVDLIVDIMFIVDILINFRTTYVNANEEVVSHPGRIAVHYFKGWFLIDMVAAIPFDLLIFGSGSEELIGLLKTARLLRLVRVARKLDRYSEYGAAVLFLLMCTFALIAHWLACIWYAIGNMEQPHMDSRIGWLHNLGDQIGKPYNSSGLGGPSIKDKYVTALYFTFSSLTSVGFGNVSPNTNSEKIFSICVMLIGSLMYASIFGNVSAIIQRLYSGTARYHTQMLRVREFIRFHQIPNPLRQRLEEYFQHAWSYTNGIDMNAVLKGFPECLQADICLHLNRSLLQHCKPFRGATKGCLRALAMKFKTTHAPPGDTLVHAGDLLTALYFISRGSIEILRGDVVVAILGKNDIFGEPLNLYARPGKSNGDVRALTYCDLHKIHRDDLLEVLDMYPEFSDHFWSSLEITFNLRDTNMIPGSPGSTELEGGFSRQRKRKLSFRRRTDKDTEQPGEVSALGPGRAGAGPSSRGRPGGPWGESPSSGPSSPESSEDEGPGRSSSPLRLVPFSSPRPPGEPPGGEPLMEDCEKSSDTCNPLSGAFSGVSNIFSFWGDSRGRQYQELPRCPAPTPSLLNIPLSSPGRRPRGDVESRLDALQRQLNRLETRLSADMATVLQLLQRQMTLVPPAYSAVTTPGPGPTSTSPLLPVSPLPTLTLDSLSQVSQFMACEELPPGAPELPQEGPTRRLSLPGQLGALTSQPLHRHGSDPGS
For the compound `Cc1cc(C(=O)Nc2ccc3c(c2)OCCO3)c(C)o1`, the “hERG current change (%, negative = inhibition) at 10uM” value is listed as 4.25%.

Consider `Cc1cc(F)ccc1S(=O)(=O)Nc1ncnc2sccc12`, for which the “hERG current change (%, negative = inhibition) at 10uM” value turned out to be 15.4%.

Consider `O=C(N/N=C/c1ccccc1Br)C1CC1`, for which the “hERG current change (%, negative = inhibition) at 10uM” value is 40.1%.

In the case of `Cc1ccc(C(=O)Nc2ccccc2C(=O)O)cc1S(=O)(=O)Nc1ccc(Br)cc1`, the “hERG current change (%, negative = inhibition) at 10uM” value is reported as 21.3%.

Take `O=C(c1ccc([N+](=O)[O-])o1)N1CCc2ccccc21`: the “hERG current change (%, negative = inhibition) at 10uM” value is reported as 6.67%.

As for `Cc1nc(CC(=O)NNS(=O)(=O)c2ccc3ccccc3c2)cs1`, the “hERG current change (%, negative = inhibition) at 10uM” value amounted to 16.9%.

For the compound `Cc1ccc(N2CC(NS(=O)(=O)c3cccnc3)CC2=O)cc1` (centres unmarked), the “hERG current change (%, negative = inhibition) at 10uM” value is recorded as -7.5%.

As to `N#Cc1ccc(NC(=O)COC(=O)CCc2nc3ccccc3c(=O)[nH]2)cc1`, the “hERG current change (%, negative = inhibition) at 10uM” value was -4.6%.

As to `CCCCCN(C(=O)CCC(=O)OCCOc1cccc(Cl)c1)c1c(N)n(CCCC)c(=O)[nH]c1=O`, the “hERG current change (%, negative = inhibition) at 10uM” value is -0.473%.

`Cc1cc(C(=O)Nc2cccc(S(=O)(=O)N3CCCCC3)c2)c2ccccc2n1`: the “hERG current change (%, negative = inhibition) at 10uM” value was -4.54%.

For `O=C(c1cccc(N2C(=O)C3C4C=CC(C4)C3C2=O)c1)N1CCCCCC1` (centres unmarked), the “hERG current change (%, negative = inhibition) at 10uM” value is on record as -11.4%.

On to `COc1ccccc1N1CCN(C(=O)c2ccc3[nH]c(C)c(C)c3c2)CC1`, for which the “hERG current change (%, negative = inhibition) at 10uM” value was 8.04%.

Turning to `CN1CCN(c2nc3ccccc3nc2C(C#N)C(=O)OC2CCCCC2)CC1` (centres unmarked), the “hERG current change (%, negative = inhibition) at 10uM” value is reported as -79.5%.

Take `Cn1cc([N+](=O)[O-])c(C(=O)N(Cc2ccccc2)Cc2ccccc2)n1`: the “hERG current change (%, negative = inhibition) at 10uM” value is listed as -7.1%.

Take `NC(=O)COC(=O)c1cc(S(=O)(=O)N2CCN(c3ccccc3)CC2)ccc1Cl`: the “hERG current change (%, negative = inhibition) at 10uM” value came to 14.3%.

For the compound `Cc1c(C(=O)Nc2ccc(S(=O)(=O)N(C)C3CCN(C)CC3)cc2)oc2c(Cl)cccc12`, the “hERG current change (%, negative = inhibition) at 10uM” value is -16.9%.

For the compound `CCN(Cc1ccccc1)C(=S)NC(=O)c1ccccc1Br`, the “hERG current change (%, negative = inhibition) at 10uM” value is reported as -3.74%.

Turning to `COc1ccc(S(=O)(=O)n2nc(OC(=O)c3ccccc3)cc2N)cc1`, the “hERG current change (%, negative = inhibition) at 10uM” value worked out at 12.1%.

As for `COC(=O)c1c(NC(=O)CN2C(=O)NC3(CCC(C(C)(C)C)CC3)C2=O)sc2c1CCCCC2` (centres unmarked), the “hERG current change (%, negative = inhibition) at 10uM” value came out at 18.9%.

Take `O=C(O)CCSCCC(=O)O`: the “hERG current change (%, negative = inhibition) at 10uM” value is recorded as 17.9%.

In the case of `Cc1c(NS(=O)(=O)c2ccc(NC(=O)CCC(=O)O)cc2)c(=O)n(-c2ccccc2)n1C`, the “hERG current change (%, negative = inhibition) at 10uM” value stood at 20.9%.

As for `COc1ccc(N2CCN(C(=O)c3ccc(COc4ccc5c(C)cc(=O)oc5c4)cc3)CC2)cc1`, the “hERG current change (%, negative = inhibition) at 10uM” value is listed as -5.04%.

With `CCOC(=O)c1ccc(CNC(=O)Cn2nnc(-c3ccccc3)n2)o1`, the “hERG current change (%, negative = inhibition) at 10uM” value was 1.92%.

For `CC(C(=O)NN)n1nnc(N2CCOCC2)n1` (centres unmarked), the “hERG current change (%, negative = inhibition) at 10uM” value is on record as 10.3%.

As for `CC(=O)Oc1cccc(N2C(=O)C3C4C=CC(C4)C3C2=O)c1` (centres unmarked), the “hERG current change (%, negative = inhibition) at 10uM” value is 0.674%.

For the compound `Nc1cc(OCC(F)(F)F)cc(OCC(F)(F)F)c1`, the “hERG current change (%, negative = inhibition) at 10uM” value is recorded as 9.19%.

As for `O=C(CCOc1ccccc1)OCC(=O)c1cc2ccccc2o1`, the “hERG current change (%, negative = inhibition) at 10uM” value is -10.3%.

Consider `CCn1c(SCC(=O)NCc2ccco2)nnc1C1CCCC1`, for which the “hERG current change (%, negative = inhibition) at 10uM” value turned out to be 13%.

In the case of `O=C(COC(=O)c1ccc(O)cc1)NC(=O)NCc1ccccc1`, the “hERG current change (%, negative = inhibition) at 10uM” value is on record as -7.67%.

`C=CCn1c(SCc2ccc(C#N)cc2)nnc1-c1ccc(C)cc1`: the “hERG current change (%, negative = inhibition) at 10uM” value is given as -71.3%.

In the case of `COC(=O)c1ccc(COC(=O)c2cnccn2)cc1`, the “hERG current change (%, negative = inhibition) at 10uM” value is -2.76%.

For `CC1(C)Cc2nc3sc4c(SCC(=O)NCc5ccccc5)ncnc4c3cc2CO1`, the “hERG current change (%, negative = inhibition) at 10uM” value is -27.5%.

On to `O=C(Nc1ccnc(-c2cccnc2)n1)c1ccccc1Cl`, for which the “hERG current change (%, negative = inhibition) at 10uM” value came to 0.772%.

Regarding `COc1cccc(NC(=O)CCN2C(=O)c3cccc([N+](=O)[O-])c3C2=O)c1`, the “hERG current change (%, negative = inhibition) at 10uM” value is given as -3.85%.

For `O=S(=O)(c1ccc(F)cc1)n1ccc2cccnc21`, the “hERG current change (%, negative = inhibition) at 10uM” value is listed as -0.0309%.

In the case of `Cc1ccc(C(=O)Nc2cc(S(=O)(=O)N3CCOCC3)ccc2N2CCCC2)cc1`, the “hERG current change (%, negative = inhibition) at 10uM” value was -8.42%.

Turning to `Cc1ccc(C(=O)C2=C(O)C(=O)N(c3ncccn3)C2c2ccc(Br)cc2)o1` (centres unmarked), the “hERG current change (%, negative = inhibition) at 10uM” value came to 13.6%.

For the compound `COc1ccc(NC(=O)CSc2cccc3cccnc23)c(OC)c1`, the “hERG current change (%, negative = inhibition) at 10uM” value is listed as -7.79%.

Regarding `CCc1nnc(NC(=O)c2nc(S(=O)(=O)Cc3ccc(C)cc3)ncc2Cl)s1`, the “hERG current change (%, negative = inhibition) at 10uM” value is listed as 16.1%.

Turning to `Cc1nc2ccccc2n1S(=O)(=O)c1ccc(Br)cc1`, the “hERG current change (%, negative = inhibition) at 10uM” value is -2.34%.

As for `Fc1ccccc1CN1CCCC(NC2CCC2)C1` (centres unmarked), the “hERG current change (%, negative = inhibition) at 10uM” value turned out to be 10.4%.

For the compound `CC(CNC(=O)COc1ccccc1)OC(=O)Nc1cccc(Cl)c1` (centres unmarked), the “hERG current change (%, negative = inhibition) at 10uM” value is reported as -19%.

On to `COc1ccccc1CNS(=O)(=O)c1ccc2[nH]cc(C(=O)O)c(=O)c2c1`, for which the “hERG current change (%, negative = inhibition) at 10uM” value is 20.8%.

With `CC(C)C1OC(c2cccc(NC(=O)c3cccs3)c2)OCC1(C)C` (centres unmarked), the “hERG current change (%, negative = inhibition) at 10uM” value is reported as -7.71%.

Turning to `Cc1ccc(-c2cc(C(F)F)n3ncc(C(=O)N4CCN(c5cccc(C)c5C)CC4)c3n2)cc1`, the “hERG current change (%, negative = inhibition) at 10uM” value is 2.05%.

With `O=C(Nc1cnccn1)Nc1ccccc1Cl`, the “hERG current change (%, negative = inhibition) at 10uM” value is 2.58%.

`O=C(NCC1CCCCC1)c1cccc([N+](=O)[O-])c1`: the “hERG current change (%, negative = inhibition) at 10uM” value was 9.98%.

For `CC(=O)N1c2ccc(S(=O)(=O)NCCC(=O)NCCc3ccc(C)cc3)cc2CC1C` (centres unmarked), the “hERG current change (%, negative = inhibition) at 10uM” value is on record as -8.29%.

As for `COc1ccc(C)cc1S(=O)(=O)N(C)CC(=O)N1CCCCC1`, the “hERG current change (%, negative = inhibition) at 10uM” value is listed as 8.01%.

Regarding `O=C(COC(=O)c1cnccn1)Nc1ccc2c(c1)OCO2`, the “hERG current change (%, negative = inhibition) at 10uM” value was found to be 7.23%.

As for `O=S(=O)(c1cccs1)n1cccn1`, the “hERG current change (%, negative = inhibition) at 10uM” value was 3.83%.

On to `COc1ccc(C(=O)OCC(=O)NC(=O)NCc2ccccc2)cc1[N+](=O)[O-]`, for which the “hERG current change (%, negative = inhibition) at 10uM” value was -1.9%.

`CCOc1ccccc1CNCCOC.Cl`: the “hERG current change (%, negative = inhibition) at 10uM” value came to 1.1%.

For `CCOC(=O)c1cc(-c2ccc(OC)cc2)n(CCC(=O)NCCN2CCC(C)CC2)c1C`, the “hERG current change (%, negative = inhibition) at 10uM” value is listed as -52.4%.

Take `COc1cc(/C=N/NC(=O)C(C)Nc2n[nH]c(=O)[nH]c2=O)cc(OC)c1O` (centres unmarked): the “hERG current change (%, negative = inhibition) at 10uM” value is listed as 15%.

As for `COc1cc(/C=C2/SC(=S)N(CC(=O)Nc3cccnc3)C2=O)cc(OC)c1OC`, the “hERG current change (%, negative = inhibition) at 10uM” value is on record as 7.93%.
